Consider two proteins from publication PMC5770238 (Science (New York, N.Y.), 2017).

This series deals with the molecule itself. Kind of series: cryo-EM structure.

B1: Hsp104 N728A (sensor 1 ATPase mutant in NBD2) (enzyme)
chain: not shown
B1: the “stoichiometry N” value stood at 6.

B2: Hsp104 T317A (sensor 1 ATPase mutant in NBD1) (enzyme)
chain: not shown
Consider B2, for which the binding result is reported as “binds”.
